# Laboratory results from publication PMC4336329 (PLoS ONE, 2015).
# Out of some 310,000 compounds screened, about 2,200 (0.71%) showed an effect of 50% or more. Effects have a minus sign here. The list shows a part of the results. Where a SMILES comes first, the peptide text is derived from it.
# Target: human ether-à-go-go-related gene (hERG) potassium channel (human, UniProt Q12809)
# Assay: primary screen, population patch clamp on CHO cells stably expressing hERG
# human ether-à-go-go-related gene (hERG) potassium channel, sequence (Q12809 whole entry, looked up): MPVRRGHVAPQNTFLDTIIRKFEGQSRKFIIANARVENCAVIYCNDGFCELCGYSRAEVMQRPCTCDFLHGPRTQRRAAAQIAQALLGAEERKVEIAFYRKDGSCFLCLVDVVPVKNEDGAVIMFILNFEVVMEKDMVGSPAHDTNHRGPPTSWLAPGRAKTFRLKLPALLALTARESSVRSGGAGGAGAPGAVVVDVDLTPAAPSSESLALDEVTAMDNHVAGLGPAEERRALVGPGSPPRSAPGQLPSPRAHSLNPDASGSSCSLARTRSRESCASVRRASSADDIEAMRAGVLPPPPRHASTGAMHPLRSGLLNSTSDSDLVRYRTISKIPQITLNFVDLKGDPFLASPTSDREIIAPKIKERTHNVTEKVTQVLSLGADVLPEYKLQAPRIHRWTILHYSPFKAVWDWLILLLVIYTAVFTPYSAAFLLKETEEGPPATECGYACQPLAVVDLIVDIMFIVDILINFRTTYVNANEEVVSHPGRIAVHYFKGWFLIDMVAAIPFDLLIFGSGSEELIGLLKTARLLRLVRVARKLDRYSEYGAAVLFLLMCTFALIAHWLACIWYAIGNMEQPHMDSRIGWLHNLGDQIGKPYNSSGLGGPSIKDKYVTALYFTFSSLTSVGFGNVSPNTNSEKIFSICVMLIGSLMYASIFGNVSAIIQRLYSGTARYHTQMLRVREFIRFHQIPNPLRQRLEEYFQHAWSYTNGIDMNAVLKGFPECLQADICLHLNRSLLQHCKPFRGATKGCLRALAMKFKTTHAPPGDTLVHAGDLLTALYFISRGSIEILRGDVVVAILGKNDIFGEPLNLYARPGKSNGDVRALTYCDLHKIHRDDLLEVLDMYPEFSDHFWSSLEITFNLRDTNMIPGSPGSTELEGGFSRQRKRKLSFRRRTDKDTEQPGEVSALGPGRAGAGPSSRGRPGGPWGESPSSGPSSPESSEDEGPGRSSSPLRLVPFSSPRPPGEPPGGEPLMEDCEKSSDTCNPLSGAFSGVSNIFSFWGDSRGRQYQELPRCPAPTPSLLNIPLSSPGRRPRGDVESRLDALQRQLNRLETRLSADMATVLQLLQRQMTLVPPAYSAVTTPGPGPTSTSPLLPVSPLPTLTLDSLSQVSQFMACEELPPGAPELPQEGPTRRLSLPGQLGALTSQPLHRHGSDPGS
row,Structure (SMILES),"hERG current change (%, negative = inhibition) at 1uM [%]"
1,O=C(CCC(=O)c1cccs1)NCc1ccc(Cl)cc1,4.13
2,CCOC(=O)Cn1c(=O)n(Cc2ccco2)c(=O)c2ccc(C(=O)NCCc3ccccc3)cc21,8
3,Cc1cc(C)cc(N(C(C)C(=O)N2CCCC2)S(C)(=O)=O)c1 (stereo not drawn),5.39
4,CCOC(=O)Cn1c(=O)oc2cc(S(=O)(=O)NCCC(C)C)ccc21,21.6
5,COC(=O)C1=C(C)N(C2CCCCC2)C(=O)C1,15.3
6,COC(=O)C1=C(C)NC(=O)NC1c1ccco1 (stereo not drawn),1.94
7,CCCCOC(=O)c1ccc(NS(=O)(=O)c2cc(-c3nnnn3CC)ccc2OC)cc1,8.41
8,CCOC(=O)c1c(-n2c(C)cc(C=C3C(=O)NC(=S)NC3=O)c2C)sc2c1CCCC2,-2.59
9,O=C(CCSc1nc(-c2ccco2)cc(C(F)(F)F)n1)NCc1ccccn1,3.33
10,CCN(CC)CCCNc1nc(C)cc(COC)c1C#N,0.237
11,CCOc1ccccc1NC=C1C(=O)OC(C)(C)OC1=O,5.29
12,C[N+](C)(C)CCCNC(=O)c1ccc(/C=N/O)nc1.[I-],14.3
13,O=C(c1ccc(COc2ccc(Cl)cc2)o1)N1N=C(C(F)F)CC1(O)C(F)F (stereo not drawn),6.56
14,Clc1ccc(CN2CCc3c([nH]c4ccccc34)C2)cc1Cl,7.42
15,COc1cc(C(=O)Nc2nnc(CC(=O)NCc3ccccc3)s2)cc(OC)c1OC,-1.96
16,Cn1ncc(Br)c1C(=O)NC12CC3CC(CC(C3)C1)C2,5.35
17,Cn1cnnc1Sc1ccc(CN2CCN(C3CCCC3)C(CCO)C2)o1 (stereo not drawn),4.02
18,Cc1ccc(-n2nnnc2SCC(=O)c2c(N)n(C3CC3)c(=O)[nH]c2=O)cc1C,-5.73
19,NC(=O)CC(NC(=O)c1ccccc1)c1ccc(NCCc2ccc(F)cc2)c([N+](=O)[O-])c1 (stereo not drawn),15.6
20,CCN(CC)c1ccc(/C=N/NC(=O)c2cccc(S(=O)(=O)Nc3ccccc3OC)c2)c(O)c1,9.51
21,COc1ccc(-c2cc3nc(C)c(CCC(=O)NC(C)CCc4ccco4)c(C)n3n2)c(OC)c1 (stereo not drawn),-2.43
22,Cc1cc(OCC(=O)NC(Cc2ccc(Cl)cc2)C(=O)O)c2c(C)c(C)c(=O)oc2c1 (stereo not drawn),5.22

row,Structure (SMILES),"hERG current change (%, negative = inhibition) at 1uM [%]"
1,CN(Cc1c(C(=O)N/N=C/c2cccc(F)c2)nnn1-c1nonc1N)c1ccccc1,12.8
2,COc1ccc(C(=O)Nc2c3c(nn2-c2ccc([N+](=O)[O-])cc2)CS(=O)(=O)C3)cc1,-6.55
3,COc1ccc(-c2nnn(Cc3nn[nH]n3)n2)cc1OC,-0.517
4,COc1ccc(CN2CCN(S(=O)(=O)c3ccc(NC(C)=O)cc3)CC2)c(OC)c1OC.O=C(O)C(=O)O,12.1
5,CCC(CC)c1nnc(NC(=O)c2ccc3ccccc3n2)s1,-1.48
6,CCOc1ccccc1NC(=O)Nc1cc(OC)ccc1OC,15.9
7,CCC(C(=O)OCC(=O)Nc1ccc(Cl)c(S(=O)(=O)N(C)C)c1)c1ccccc1 (stereo not drawn),7.15
8,COc1ccc(NC(=O)N(Cc2ccc(C)cc2)Cc2ccccn2)c(OC)c1,1.71
9,Cc1ccc(S(=O)(=O)N[C@H](C(=O)Oc2ccc3c(C(F)(F)F)cc(=O)oc3c2)c2ccccc2)cc1,14.4
10,CCN(CCCNC(=O)CN1C(=O)COc2ccccc21)c1cccc(C)c1,10.4
11,CCOC(=O)c1sc2nc(C)nc(NCc3ccccc3)c2c1C,16.7
12,COc1cccc(/C=N/Nc2cc(C)nc(-c3ccccc3O)n2)c1O,6.8
13,COc1ccc(OC)c(NC(=S)NCCC(c2ccccc2)c2ccccc2)c1,12.2
14,COC(=O)[C@H](Cc1ccccc1)NC(=O)[C@@H](N)CC(=O)O (H-Asp-Phe-OMe),5.12
15,COc1ccc(C(=O)NNC(=O)Nc2ccc(Cl)cc2)cc1,13.5
16,Cc1nc(N)nc(Nc2ccc(Cl)cc2)c1Br,2.27
17,CCCCCC(=O)NC(=S)Nc1ccc(N2CCCCC2)c(Cl)c1,12
18,CCOc1cc(/C=N/N=C2/NC(=O)C(CC(=O)O)S2)ccc1OCc1ccccc1Cl (stereo not drawn),6.44
19,CC1(C2CC(C(F)(F)F)n3nc(C(=O)O)cc3N2)CC1 (stereo not drawn),13
20,COc1cccc(NC(=O)Cn2nnc(-c3ccccc3N)n2)c1,1.76
21,CN1C(=O)Cn2c1nc1ccccc12,7.32
22,CC(=O)Nc1ccc(S(=O)(=O)N2CCN(S(=O)(=O)c3ccc(NC(C)=O)cc3)CC2)cc1,22.6

row,Structure (SMILES),"hERG current change (%, negative = inhibition) at 1uM [%]"
1,On1c(-c2ccccc2)nc2ccc(Cl)cc21,1.26
2,O=C(O)c1nc(N2CCCCC2)ncc1Cl,9.09
3,COc1ccc(-c2n[nH]c(C)c2-c2ccc(Cl)cc2)c(O)c1,10.2
4,CC(=O)Oc1ccc(-c2nc(-c3cccnc3)no2)cc1,10.2
5,COc1cc(NC(=O)c2cc3nc(C4CC4)cc(C(F)(F)F)n3n2)c(OC)cc1Cl,-2.75
6,CCCCn1nnnc1NCc1cccc(OC)c1OC,2.57
7,O=C(NCCC1=CCCCC1)C1CCN(C(=O)Cc2ccccc2)CC1,8.44
8,Cc1ccc(C)c(S(=O)(=O)N2CCN(C(=O)c3cc(-c4cccs4)nn3-c3ccccc3)CC2)c1,10.4
9,C=CCCCOc1ccc(C(=O)O)cc1,12.7
10,COc1ccc(Nc2nc(N)nc(CSc3nncn3C)n2)cc1,13
11,COc1ccc(OC)c(/C=N/NC(=O)c2cc3c(OC)cccc3[nH]2)c1,7.35
12,COC(=O)Cc1cc(=O)n2c(nc3ccccc32)[nH]1,12.9
13,Cc1ccc(S(=O)(=O)Oc2ccc(/C=C(/NC(=O)c3ccccc3)C(=O)NC(C)C(=O)O)cc2)cc1 (stereo not drawn),15.1
14,O=C(Nc1ccccc1)N1CCN(Cc2ccc(Cl)cc2)CC1,-9.14
15,Cc1ccc(S(=O)(=O)N2CCCC2)cc1C(=O)Nc1ccc(-n2cnnn2)cc1,5.21
16,CCCCNc1c([N+](=O)[O-])cc(C(=O)O)cc1[N+](=O)[O-],3.44
17,O=C(Nc1cccnc1)c1sc2cccc(F)c2c1Cl,11.4
18,COCCNC(=S)N1CCC(C(=O)c2ccc(C)cc2)CC1,7.47
19,Cc1ccc(C(NC(=O)N2CCOCC2)C(Cl)Cl)cc1F (stereo not drawn),5.52
20,COc1ccc(C(CC(=O)O)NC(=O)C2CCCCC2)cc1 (stereo not drawn),4.29
21,COc1ccc(NC(=O)CSc2n[nH]c(N)n2)c([N+](=O)[O-])c1,22.8
22,COc1ccc(NS(=O)(=O)c2ccc3oc(Nc4ccc5c(c4)OCCO5)nc3c2)cc1,-3.36

row,Structure (SMILES),"hERG current change (%, negative = inhibition) at 1uM [%]"
1,Cc1ccc2nc(-c3ccc(NC(=O)C(C)Sc4nncs4)cc3)sc2c1 (stereo not drawn),13.2
2,NS(=O)(=O)c1ccc(NC(=O)c2cc(Cl)ccc2Cl)cc1,7.88
3,S=C(c1ccc(Br)cc1)N1CCN(Cc2ccccc2)CC1,-3.15
4,Cc1ccc(C)c(-n2c(-c3ccncc3)n[nH]c2=S)c1,14.3
5,COC(C[C@@H](O)C[C@@H](O)[C@H](C)OCc1ccccc1)OC,23.8
6,CCCCn1nc(NC(=O)CC)c2cc3cc(OC)ccc3nc21,8.22
7,O=C(CC1SC(=O)N(c2ccccc2)C1=O)Nc1ccccc1 (stereo not drawn),14.5
8,CCn1c2ccccc2c2cc(/C=N/NC(=O)c3cc(O)cc(O)c3)ccc21,9.35
9,CC(NC(=O)CCCCCNC(=O)N1CCn2c1nc1ccccc12)c1ccccc1 (stereo not drawn),3.61
10,Cc1cc(OCC(=O)NC(Cc2c[nH]c3ccc(O)cc23)C(=O)O)c2c(C)c(C)c(=O)oc2c1 (stereo not drawn),14.5
11,CCc1nnc(N2C(=O)c3cccc4cccc(c34)C2=O)s1,3.78
12,Cn1c2ccccc2c2cc(/C=N/NC(=O)c3ccccc3F)ccc21,10.6
13,COc1ccc(-c2cc(=O)[nH]c3ccccc23)cc1,12.5
14,CCOc1ccc(NS(=O)(=O)c2c(C)nc3sc(CC)nn3c2=O)cc1,6.31
15,CCCCNC(=O)/C(C#N)=C/c1ccc2c(c1)OCCO2,8.66
16,O=c1oc2ccccc2c(Nc2cccc(O)c2)c1[N+](=O)[O-],17.8
17,CC(NC(=O)C1CCC(CNS(=O)(=O)c2ccc3c(c2)C(C)(C)C(=O)N3C)CC1)c1ccccc1 (stereo not drawn),9.8
18,CC(=O)O.O=S(=O)(Cc1ccccc1)N1CCNCC1,12.5
19,COc1cccc(CN(Cc2ccco2)C(c2ccc(F)cc2)c2nnnn2C(C)(C)C)c1 (stereo not drawn),5.09
20,Cc1cc(=O)n2cccc(O)c2n1.Cl,16.3
21,Nc1c(C(=O)NCCN2CCOCC2)c2nc3ccccc3nc2n1-c1ccccc1,-3.09
